From the supplement of paper PMC4967469

Columns and labels:
Experiment in all cases: Viability of human cancer cell lines after 72 h of drug (GDSC screen)
[1] = compound: COc1cc(N2CCN(C)CC2)ccc1Nc1nc(N)c(C(=O)c2c(Cl)cccc2Cl)s1 [XMD14-99]; conditions: top dose 10.24 µM; top dose inferred
Experimental: (§1)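 Human cancer cell lines in 384-well plates, medium with 10% serum, drug for 72 h over a 256-fold dose range (nine 2-fold or five 4-fold steps up to the top dose). Adherent lines were fixed and stained with the nucleic acid dye Syto60, suspension lines read with resazurin; signal relative to control wells, capped at 0 and 100%. One two-parameter sigmoid per drug and line, fitted in a mixed model over all curves with the slope shared within a line.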

[2] = compound: CNC(=O)c1cc(Oc2ccc(NC(=O)Nc3ccc(Cl)c(C(F)(F)F)c3)cc2)ccn1 [Sorafenib]; conditions: top dose 4 µM
Experimental: as §1

[3] = compound: Cc1n[nH]c2ccc(-c3cncc(OC[C@@H](N)Cc4c[nH]c5ccccc45)c3)cc12 [A-443654]; conditions: top dose 1.024 µM; top dose inferred
Experimental: as §1

[4] = compound: Cc1nc(Nc2ncc(C(=O)Nc3c(C)cccc3Cl)s2)cc(N2CCN(CCO)CC2)n1 [Dasatinib]; conditions: top dose 1.28 µM
Experimental: as §1

[5] = compound: O=C(NC1CCNCC1)c1n[nH]cc1NC(=O)c1c(Cl)cccc1Cl [AT-7519]; conditions: top dose 10.24 µM; top dose inferred
Experimental: as §1

[6] = compound: Cc1cc([N+](=O)[O-])ccc1NS(=O)(=O)c1cc(Cl)ccc1Cl [FH535]; conditions: top dose 32 µM; top dose inferred
Experimental: as §1

Cell Line | AUC [1] | IC50 [1] [nM] | AUC [2] | IC50 [2] [nM] | AUC [3] | IC50 [3] [nM] | AUC [4] | IC50 [4] [nM] | AUC [5] | IC50 [5] [nM] | AUC [6] | IC50 [6] [nM]
NCI-H1694 (small cell lung carcinoma, suspension) | 0.986 | > 10200 | 0.942 | > 4000 | 0.836 | 675 | 0.989 | > 1280 | 0.796 | 4770 | 0.843 | 22500
SK-N-DZ (neuroblastoma, adherent) | 0.988 | > 10200 | 0.87 | 3640 | 0.918 | > 1020 | 0.897 | > 1280 | 0.97 | > 10200 | 0.808 | 16400
BB65-RCC (kidney, adherent) | 0.983 | > 10200 | 0.675 | 834 | 0.824 | 737 | 0.479 | 69.6 | 0.821 | 7130 | 0.564 | 3070
EoL-1-cell (haematopoietic neoplasm, suspension) | 0.823 | 5140 | 0.975 | > 4000 | 0.63 | 139 | 0.026 | < 5 | 0.425 | 411 | 0.652 | 5000
PSN1 (pancreas, adherent) | 0.981 | > 10200 | 0.888 | 3250 | 0.47 | 53.6 | 0.43 | 53.1 | 0.343 | 254 | 0.579 | 3170
TE-9 (oesophagus, adherent) | 0.981 | > 10200 | 0.848 | 3170 | 0.786 | 462 | 0.778 | 538 | 0.985 | > 10200 | 0.493 | 1910
SK-ES-1 (Ewing sarcoma, semi-adherent) | 0.973 | > 10200 | 0.93 | > 4000 | 0.676 | 206 | 0.979 | > 1280 | 0.657 | 1800 | 0.614 | 4200
LAMA-84 (chronic myeloid leukaemia, suspension) | 0.934 | > 10200 | 0.769 | 1530 | 0.827 | 637 | 0.035 | < 5 | 0.796 | 4880 | 0.682 | 6500
DMS-114 (small cell lung carcinoma, adherent) | 0.981 | > 10200 | 0.934 | > 4000 | 0.895 | > 1020 | 0.974 | > 1280 | 0.848 | 9400 | 0.878 | > 32000
HH (T-cell leukaemia, suspension) | 0.855 | > 10200 | 0.918 | > 4000 | 0.688 | 258 | 0.961 | > 1280 | 0.256 | 99.3 | 0.785 | 18800
L-540 (Hodgkin lymphoma, suspension) | 0.976 | > 10200 | 0.867 | 2970 | 0.773 | 354 | 0.969 | > 1280 | 0.563 | 930 | 0.67 | 5590
no-10 (glioma, adherent) | 0.981 | > 10200 | 0.792 | 2280 | 0.602 | 130 | 0.677 | 280 | 0.598 | 1260 | 0.802 | 20000
NOMO-1 (acute myeloid leukaemia, suspension) | 0.971 | > 10200 | 0.902 | > 4000 | 0.78 | 482 | 0.98 | > 1280 | 0.333 | 205 | 0.648 | 5440
ETK-1 (biliary tract, adherent) | 0.973 | > 10200 | 0.964 | > 4000 | 0.596 | 122 | 0.378 | 35.3 | 0.57 | 1020 | 0.652 | 5630
EW-18 (Ewing sarcoma, suspension) | 0.934 | > 10200 | 0.807 | 2230 | 0.983 | > 1020 | 0.986 | > 1280 | 0.439 | 432 | 0.74 | 10300
NCI-H209 (small cell lung carcinoma, suspension) | 0.973 | > 10200 | 0.97 | > 4000 | 0.696 | 237 | 0.985 | > 1280 | 0.357 | 250 | 0.92 | > 32000
Daudi (Burkitt lymphoma, suspension) | 0.961 | > 10200 | 0.866 | 2830 | 0.683 | 193 | 0.884 | 1080 | 0.772 | 3460 | 0.42 | 
AMO-1 (haematopoietic neoplasm, suspension) | 0.856 | 6460 | 0.954 | > 4000 | 0.688 | 198 | 0.966 | > 1280 | 0.38 | 314 | 0.696 | 6460
LB1047-RCC (kidney, adherent) | 0.964 | > 10200 | 0.964 | > 4000 | 0.655 | 183 | 0.257 | 14.6 | 0.73 | 3180 | 0.651 | 5540
ALL-PO (lymphoblastic leukaemia, suspension) | 0.909 | > 10200 | 0.261 | 49.4 | 0.805 | 553 | 0.943 | > 1280 | 0.359 | 255 | 0.533 | 2470
GB-1 (glioma, adherent) | 0.981 | > 10200 | 0.89 | > 4000 | 0.664 |  | 0.348 | 27.9 | 0.941 | > 10200 | 0.556 | 2920
Farage (B-cell lymphoma, suspension) | 0.983 | > 10200 | 0.887 | 3070 | 0.702 | 210 | 0.113 | 6.54 | 0.221 | 120 | 0.706 | 6690

By IC50 is meant the dose at which the fit gives 50% viability; fits outside the tested doses are given as limits. The AUC spans the tested range (256-fold, ending at the top dose) of the same fit; values near 1 show little effect. For some of these results: Any top dose called inferred is not printed in the source and was worked back from the curve model.
